From PubChem BioAssay AID1476 (National Center for Advancing Translational Sciences (NCATS), 2009)
The campaign covered roughly 200,000 compounds. About 4,500 (2.2%) were called active. This list was built around the results that the source calls inconclusive (neither active nor inactive); the mix of calls is not that of the screen. Calls follow the shape of the dose curve; as a rule, active = well fitted inhibition curve with a large enough effect; inconclusive = small, poorly fitted or top-dose-only effect, or effect the other way; inactive = flat fitted curve, though single readings scatter. Potencies beside an inconclusive call are fits to weak or partial responses and may not hold up.

The compounds below were run against Cruzipain (Trypanosoma cruzi) (UniProt P25779) (assay: qHTS Assay for Promiscuous and Specific Inhibitors of Cruzain (without detergent)). Conditions: purified cruzain, Z-FR-AMC fluorescence, no detergent.
UniProt P25779, sequence (P25779 whole entry, looked up): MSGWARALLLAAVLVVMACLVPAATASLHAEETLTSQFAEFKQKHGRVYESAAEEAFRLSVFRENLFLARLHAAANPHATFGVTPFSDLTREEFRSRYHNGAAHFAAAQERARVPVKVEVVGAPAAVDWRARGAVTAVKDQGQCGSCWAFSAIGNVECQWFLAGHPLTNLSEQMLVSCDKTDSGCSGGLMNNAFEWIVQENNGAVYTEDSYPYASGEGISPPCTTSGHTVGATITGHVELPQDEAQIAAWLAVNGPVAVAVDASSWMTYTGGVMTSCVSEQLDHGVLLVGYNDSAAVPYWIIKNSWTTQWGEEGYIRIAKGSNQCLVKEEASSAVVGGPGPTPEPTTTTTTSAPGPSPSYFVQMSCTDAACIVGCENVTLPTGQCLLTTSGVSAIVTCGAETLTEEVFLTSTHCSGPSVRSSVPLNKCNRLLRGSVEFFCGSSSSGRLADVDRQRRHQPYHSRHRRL
Summary of the method: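 Detergent-free condition (0.00005% Triton X-100) in acetate buffer pH 5.5 with DTT. 1.5 nM enzyme and compound were pre-mixed 15 min, then 2 uM Z-FR-AMC substrate added; reaction progress from fluorescence change between first and third reads (60 s).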
Also: nearly all actives have a fitted effect of over 40% in size.
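For max response, negative = inhibition in this document: plate controls were enzyme without inhibitor for no effect and buffer without enzyme for full effect.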
Potency is read from the fitted curve at half-maximal effect; tags tell the direction and shape of the fitted curve.

Row | SMILES | Potency | max response, negative = inhibition
1 | Brc1cc2c(cc1/C=N/Nc1nc(N3CCOCC3)nc(N3CCOCC3)n1)OCO2 | inconclusive: 39.8 µM [activator, single point] | –
2 | CC(C)(C)NC(=O)C(=O)N/N=C/c1ccc(Br)cc1 | inconclusive: 31.6 µM [inhibitor, single point] | –
3 | O=[N+]([O-])c1ccc2c(c1)oc1ccccc12 | inconclusive: 39.8 µM [inhibitor, single point] | –
4 | Cc1ccc(C2=NN(C(=S)Nc3ccccc3)C(c3ccco3)C2)cc1 (configuration not stated) | inconclusive: 31.6 µM [inhibitor, single point] | –
5 | Cc1cc(-c2c(C)[nH]n(-c3ccc(Cl)cc3)c2=O)n(-c2ccccc2)n1 | inconclusive: 39.8 µM [activator, single point] | –
6 | CS(=O)(=O)N1CCN(c2ccc(C(=O)NC3C4CC5CC(C4)CC3C5)cc2[N+](=O)[O-])CC1 (configuration not stated) | inconclusive: 25.1 µM [activator, single point] | –
7 | Cc1ccc(S(=O)(=O)/N=C2/C=C(Sc3ncn[nH]3)C(=O)c3ccccc32)c(C)c1 | inconclusive: 31.6 µM [inhibitor, single point] | –
8 | CCOC(=O)c1noc2ncnc(NCc3ccccc3OC)c12 | – | inactive: -11.2%
9 | COc1ccccc1N=C1SC(C(=O)Nc2ccccc2OC)CC(=O)N1C (configuration not stated) | inconclusive: 39.8 µM [activator, single point] | –
10 | Cn1c(=O)[nH]c(=O)c2c1nc(CN1CCN(c3cccc(Cl)c3)CC1)n2CCCc1ccccc1 | inconclusive: 20 µM [activator, partial curve] | –
11 | Cc1ccc(N2CCN(C(=O)NCc3noc4ccc(C)cc34)CC2)c(C)c1 | – | inactive: 5.13%
12 | COc1ccc(-n2c(N)c(C(=O)NCC3CCCO3)c3nc4ccccc4nc32)c(OC)c1 (configuration not stated) | inconclusive: 25.1 µM [activator, partial curve] | –
13 | Cc1nn2c(Nc3ccccc3)c3c(nc2c1-c1ccccc1)CCC3 | inconclusive: 31.6 µM [inhibitor, single point] | –
14 | COc1cc2c(cc1NC(=O)C(C)N1CCN(S(=O)(=O)c3ccc(C)c(C)c3)CC1)oc1ccccc12 (configuration not stated) | active: 7.94 µM | –
15 | CCCCOC(=O)c1cccc(NC(=O)/C=C/c2ccccc2Cl)c1 | – | inactive: -12.3%
16 | CN1C(=O)C(C)(C)c2cc(S(=O)(=O)N3CCCC3C(=O)Nc3ccc(F)cc3)ccc21 (configuration not stated) | – | inactive: 2.59%
17 | CCn1c(SCC(=O)Nc2ccc(NC(=O)c3cccs3)cc2)nnc1-c1cccnc1 | inconclusive: 39.8 µM [activator, single point] | –
18 | Cc1ccsc1CN(C(=O)COc1cccc(C)c1C)C1CCS(=O)(=O)C1 (configuration not stated) | – | inactive: 15.8%
19 | CN1c2ccccc2C(C)(C)C12C=Nc1c(cc(N3CCOCC3)c3ccccc13)O2 (configuration not stated) | active: 25.1 µM | –
20 | CC[C@@H]1O[C@]2(C=C[C@@H]1C)C[C@H]1C[C@H](CC=C(C)[C@@H](O[C@@H]3C[C@H](OC)[C@H](O[C@@H]4C[C@H](OC)[C@H](O)[C@H](C)O4)[C@H](C)O3)[C@@H](C)C=CC=C3CO[C@@H]4[C@@H](O)C(C)=C[C@@H](C(=O)O1)[C@]34O)O2 | inconclusive: 12.6 µM [activator, partial curve] | –
21 | Cc1oc(C)c2c(=O)cc(-c3ccc4c(c3)OCO4)cc(OC(=O)c3cccc(Cl)c3)c12 | inconclusive: 25.1 µM [inhibitor, single point] | –

Row | SMILES | Potency | max response, negative = inhibition
22 | C=C1C(=O)OC2CC1C(OC(C)=O)CC(C)=CCCC(C)=CCC[C@@]2(C)O (some centres not stated) | inconclusive: 20 µM [activator, partial curve] | –
23 | O=S(=O)(c1ccc(-n2cnnn2)cc1)N1CCN(c2cccc(C(F)(F)F)c2)CC1 | inconclusive: 39.8 µM [inhibitor, single point] | –
24 | Cc1ccc(Cn2c(=O)n(-c3cc(C)cc(C)c3)c(=O)c3oc4ccccc4c32)cc1 | – | inactive: -15.6%
25 | N#Cc1c(C(F)(F)F)cc(-c2cccs2)nc1SCC(=O)Nc1cccc(C(F)(F)F)c1 | – | inactive: 8.86%
26 | COc1ccc(NC(=O)C2CCN(S(=O)(=O)c3ccc4c(c3)CCCC(=O)N4)CC2)c(OC)c1 | – | inactive: 11.6%
27 | CCOc1ccc(Nc2sc(C(=O)c3cccc(OC)c3)c(N)c2S(=O)(=O)c2ccccc2)cc1 | active: 12.6 µM | –
28 | CC1Cc2ccccc2N1C(=O)CSc1nnc(NC(=O)Cc2cccs2)s1 (configuration not stated) | active: 25.1 µM | –
29 | CC(C)OCCCn1c(-c2ccco2)nc2nc3ccccc3nc21 | inconclusive: 3.16 µM [activator, partial curve] | –
30 | CN(C)c1ccc(C(CNS(=O)(=O)c2ccc(F)cc2)N2CCOCC2)cc1 (configuration not stated) | – | inactive: 1.86%
31 | CCCn1nc(C(=O)OCn2nnc3ccccc3c2=O)c2ccccc2c1=O | inconclusive: 39.8 µM [activator, single point] | –
32 | COc1ccc(C2C(=O)N(C3CCC(C)CC3)CC(=O)N2C2CCCC2)cc1OC (configuration not stated) | – | inactive: 7.2%
33 | O=C(CSc1nc2nccnc2c(=O)n1CCc1c[nH]c2ccccc12)Nc1ccc(F)cc1 | – | inactive: 2.4%
34 | CC(C)COC(=O)c1nnsc1NC(=O)Nc1ccccc1 | active: 15.8 µM | –
35 | Cc1ccccc1-c1noc(-c2ccc(N3CCN(C)CC3)c([N+](=O)[O-])c2)n1 | inconclusive: 39.8 µM [inhibitor, single point] | –
36 | COc1ccc(S(=O)(=O)Nc2ccc(O)c3ccccc23)cc1 | inconclusive: 15.8 µM [inhibitor, partial curve] | –
37 | Cc1cc(C)c(NC(=O)C(=O)NCC(c2cccnc2)N2CCN(Cc3ccccc3)CC2)c(C)c1 (configuration not stated) | inconclusive: 39.8 µM [activator, single point] | –
38 | ClCC(Cl)CCl | – | inactive: 2.98%
39 | COc1ccc(C)cc1NC(=O)Nc1ccccc1OCc1cc(=O)n2ccccc2n1 | inconclusive: 20 µM [activator, partial curve] | –
40 | CCCCNC(=O)c1cnc2sc(N3CCCCCC3)nn2c1=O | – | inactive: -0.216%
41 | COc1ccc(NC2=CC(c3cccc(OC)c3)N(c3ccc(OC)cc3)C2=O)cc1 (configuration not stated) | inconclusive: 31.6 µM [inhibitor, single point] | –
42 | Cc1cccc(Nc2nc3c(S(=O)(=O)c4ccccc4)nnn3c3ccccc23)c1C | inconclusive: 20 µM [inhibitor, single point] | –

Row | SMILES | Potency | max response, negative = inhibition
43 | O=C(Nc1ccc2nc(SCCOc3ccccc3Cl)sc2c1)c1ccc2c(c1)OCO2 | inconclusive: 5.01 µM [inhibitor, single point] | –
44 | O=C(CNC(=O)c1ccc(Cl)cc1)OCC(=O)c1ccc2c(c1)OCCO2 | active: 10 µM | –
45 | COc1ccc(-c2cc(C(=O)Nc3c(C)nn(Cc4ccccc4Cl)c3C)no2)cc1OC | inconclusive: 20 µM [activator, partial curve] | –
46 | CC1CCC(C(C)C)C(OP(=O)(c2ccc(N(C)C)cc2)C(O)c2cccnc2)C1 (configuration not stated) | inconclusive: 31.6 µM [activator, single point] | –
47 | O=S(=O)(c1cccc(S(=O)(=O)N2CCC(n3nnc4ccccc43)CC2)c1)N1CCCCC1 | inconclusive: 31.6 µM [inhibitor, single point] | –
48 | COc1ccc(S(=O)(=O)N2CCCCCC2)cc1C(=O)OCc1c(C)noc1C | inconclusive: 39.8 µM [activator, single point] | –
49 | Cc1c(C(=O)N(Cc2ccco2)Cc2ccccc2Cl)oc2ccc(F)cc12 | inconclusive: 15.8 µM [inhibitor, partial curve] | –
50 | COc1cc(OC)c(NC(=O)C(Cc2ccccc2)NS(=O)(=O)c2cccc3nsnc23)cc1Cl (configuration not stated) | – | inactive: -20.7%
51 | Cc1cc(NC(=O)CSc2nc3c([nH]c4ccccc43)c(=O)n2-c2cccc(C(F)(F)F)c2)no1 | inconclusive: 39.8 µM [inhibitor, single point] | –
52 | CCOc1ccc(NC(=O)N(C)CCc2c(C)nn(C)c2C)cc1 | – | inactive: -4.56%
53 | O=C(/C=C/c1ccc(Cl)cc1)NC(=S)Nc1ccc(NC(=O)c2ccco2)cc1 | inconclusive: 12.6 µM [inhibitor, partial curve, poor fit] | –
54 | CCOc1ccc(CCNC(=O)CSc2nnnn2-c2ccc(C)cc2C)cc1OCC | inconclusive: 39.8 µM [activator, single point] | –
55 | N#Cc1ccc(C23CC4(C2)[C@H](CN(Cc2ccc(C(F)(F)F)cc2)[C@@H]4c2ccccc2)C3c2ccc(C(F)(F)F)cc2)cc1 (some centres not stated) | inconclusive: 10 µM [inhibitor, partial curve] | –
56 | CCc1ccc(S(=O)(=O)N(C(=O)c2ccncc2)c2ccc(OC(=O)c3ccncc3)cc2)cc1 | inconclusive: 39.8 µM [activator, single point] | –
57 | CC(=O)c1sc2nc(SCC(=O)N3CCCCC3)[nH]c(=O)c2c1C | inconclusive: 12.6 µM [inhibitor, partial curve] | –
58 | CCOC(=O)N1CCN(C(=O)CS(=O)(=O)c2cn(Cc3ccccc3C)c3ccccc23)CC1 | – | inactive: -3.56%
59 | COc1ccc(C(=O)NC2(C(F)(F)F)NC(=O)N(CCCc3ccccc3)C2=O)c(OC)c1OC (configuration not stated) | inconclusive: 25.1 µM [activator, single point] | –
60 | Cc1cc2c(=O)n(C)c(SCC(=O)c3cc4ccccc4o3)nc2s1 | inconclusive: 15.8 µM [inhibitor, partial curve] | –
61 | COc1ccc(-c2[nH]nc3c2C(c2ccccc2OC(=O)N2CCOCC2)C(C#N)=C(N)O3)cc1 (configuration not stated) | inconclusive: 39.8 µM [activator, single point] | –
62 | c1ccc(Cn2nnnc2CN2CCCC2)cc1 | – | inactive: 10.4%
